Experimental findings from patent US20210340207A1 (Merck Sharp & Dohme, published 2021) are described below.

Assay [1] has as its target T1, Human IL-2Rα, His tag (Table 10) (human, UniProt P01589 22-213, limits assumed).
T1 construct: not shown: polyhistidine tag
T1 sequence (looked up): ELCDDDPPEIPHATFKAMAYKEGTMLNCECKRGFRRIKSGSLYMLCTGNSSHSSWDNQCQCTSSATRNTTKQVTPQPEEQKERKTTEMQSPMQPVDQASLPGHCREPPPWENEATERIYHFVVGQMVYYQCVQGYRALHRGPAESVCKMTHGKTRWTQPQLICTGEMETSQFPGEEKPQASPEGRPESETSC
In words: SPR (Biacore T200), receptor captured on anti-histidine surface. Here is the method:
(§1) A Surface Plasmon Resonance (SPR) assay on a Biacore T200 (GE Healthcare) instrument was used to determine the monovalent affinities of pegylated aldesleukin variants against polyhistidine-tagged or Fc-tagged IL-2 Receptors. Biacore T200 Evaluation Software was used to fit each titration series to a 1:1 binding model or steady state affinity. The association (kₒₙ, M⁻¹ s⁻¹) and dissociation (koff, s⁻¹) rate constants were determined for each set of titrations and used to calculate the dissociation constant, KD=koff/kₒₙ, of each sample against each receptor. koff/kₒₙ values are not reported herein.
(§2) To measure the affinity of CON1 and aldesleukin for IL-2R subunits, receptors were captured on either an anti-histidine or anti-hu Fc antibody surface. […] CON1 has a six-fold lower affinity for Human and Cynomolgus/Rhesus IL-2-Rβ than aldesleukin.

Assay [2] concerns the target T2, Rat IL-2Rα, His tag (Table 10) (rat, UniProt P26897 22-235, limits assumed).
T2 construct: not shown: polyhistidine tag (tag cell printed once at r13)
T2 sequence (looked up): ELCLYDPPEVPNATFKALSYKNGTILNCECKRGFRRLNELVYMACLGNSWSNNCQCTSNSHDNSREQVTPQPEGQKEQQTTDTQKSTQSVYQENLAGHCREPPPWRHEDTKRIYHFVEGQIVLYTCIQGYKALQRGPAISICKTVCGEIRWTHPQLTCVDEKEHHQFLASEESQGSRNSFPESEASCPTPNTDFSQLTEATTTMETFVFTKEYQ
The assay is described as above. Here is the method: as §1, §2

Assay [3] concerns the target T3, Cynomolgus/Rhesus IL-2Rβ, His tag (Table 10) (cynomolgus monkey / rhesus monkey, UniProt Q38J85 27-240).
T3 sequence: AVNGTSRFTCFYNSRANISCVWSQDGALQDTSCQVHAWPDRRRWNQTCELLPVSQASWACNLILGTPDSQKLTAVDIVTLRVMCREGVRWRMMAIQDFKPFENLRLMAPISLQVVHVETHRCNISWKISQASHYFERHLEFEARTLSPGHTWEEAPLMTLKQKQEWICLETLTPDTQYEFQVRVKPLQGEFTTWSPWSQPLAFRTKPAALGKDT
The description is as above. Here is the method: as §1, §2

Assay [4] deals with T4, Mouse IL-2Rβ, His tag (Table 10) (mouse, UniProt P16297 27-240, limits assumed).
T4 construct: not shown: polyhistidine tag (tag cell printed once at r17)
T4 sequence (looked up): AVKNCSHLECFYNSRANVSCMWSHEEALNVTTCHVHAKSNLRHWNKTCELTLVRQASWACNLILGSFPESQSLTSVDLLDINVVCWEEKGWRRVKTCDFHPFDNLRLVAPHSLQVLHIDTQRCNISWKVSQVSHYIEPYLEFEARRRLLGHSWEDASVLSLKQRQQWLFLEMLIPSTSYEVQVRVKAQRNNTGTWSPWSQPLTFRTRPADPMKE
Described as above. Here is the method: as §1, §2

Assay [5] deals with T5, Rat IL-2Rβ, His tag (Table 10) (rat, UniProt P26896 27-239, limits assumed).
T5 construct: not shown: polyhistidine tag (tag cell printed once at r17)
T5 sequence (looked up): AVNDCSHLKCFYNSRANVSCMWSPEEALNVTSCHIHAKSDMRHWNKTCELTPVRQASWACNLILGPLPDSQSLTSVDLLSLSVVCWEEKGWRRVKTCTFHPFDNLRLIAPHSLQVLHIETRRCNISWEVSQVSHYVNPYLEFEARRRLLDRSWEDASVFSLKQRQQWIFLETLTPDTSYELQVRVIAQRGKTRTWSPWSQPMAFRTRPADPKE
The assay is described as above. Here is the method: as §1, §2

Assay [6] deals with T6, IL-2Rα-Fc (Acro Biosystems, catalog #ILA-H5251) (UniProt P01589 22-213).
T6 construct: not shown: Fc
T6 sequence (looked up): T1 sequence (looked up)
In words: SPR, receptor-Fc captured on anti-Fc, IL-2 variant as analyte. Here is the method: (§3) Anti-Fc polyclonal antibodies are immobilized onto a CM5 chip (GE Life Sciences) using amine coupling chemistry (from Amine Coupling Kit, GE Life Sciences). The immobilization steps are carried out at a flow rate of 25 μL/minute in 1×HBS-EP+ buffer (GE Life Sciences; 10× Stock diluted before use). The sensor surfaces are activated for 7 min with a mixture of NHS (0.05 M) and EDC (0.2 M). The anti-Fc antibodies are injected over all four flow cells at a concentration of 25 μg/mL in 10 mM sodium acetate, pH 4.5, for seven minutes. Ethanolamine (1 M, pH 8.5) is injected for seven minutes to block any remaining activated groups. An average of 12,000 response units (RU) of capture antibody is immobilized on each flow cell.
(§4) Kinetic binding experiments are performed at 25° C. using 1×HBS-EP+ buffer. IL-2Rα-Fc or IL-2Rβ-Fc (Acro Biosystems, catalog #ILA-H5251, ILB-H5253) are injected over the anti-Fc surface at concentrations of 3-10 μg/mL for 12 seconds at a flow rate of 10 μL/minute on flow cells 2, 3 and 4, followed by a buffer wash for 30 seconds at the same flow rate. Kinetic characterization of conjugated or unconjugated aldesleukin or variants is carried out in a range of concentrations from 1 nM-10 μM and one injection of no antigen. […]
A general note: Surface plasmon resonance follows binding to a sensor surface in real time, without labels.

The target of assay [7] is T7, IL-2Rβ-Fc (Acro Biosystems, catalog #ILB-H5253) (UniProt P14784 27-239).
T7 construct: not shown: Fc
T7 sequence (looked up): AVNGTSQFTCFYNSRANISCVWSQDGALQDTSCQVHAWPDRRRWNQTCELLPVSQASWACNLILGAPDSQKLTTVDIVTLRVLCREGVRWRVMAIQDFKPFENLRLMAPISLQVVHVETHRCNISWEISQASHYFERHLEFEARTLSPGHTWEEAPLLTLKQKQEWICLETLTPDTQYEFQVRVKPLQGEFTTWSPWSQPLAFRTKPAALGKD
The assay is described as above. Here is the method: as §3, §4

B1: Aldesleukin (DesA1_IL-2_C124S) (ligand)
chain: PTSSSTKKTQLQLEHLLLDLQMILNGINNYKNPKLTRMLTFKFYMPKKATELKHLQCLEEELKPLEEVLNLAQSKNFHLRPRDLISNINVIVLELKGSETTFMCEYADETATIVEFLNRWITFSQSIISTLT
With B1, the “KD/KD (human)” value in assay [1] worked out at 1 ratio; in assay [2] it was 1.8 ratio; in assay [3], 1.5 ratio. Besides, the Kd was 16 nM in assay [1], 29 nM in assay [2] and 1100 nM in assay [3]. Further, the binding result in assay [4] and in assay [5] was “no binding” throughout.

B2: Ald-6HIS (ligand)
chain: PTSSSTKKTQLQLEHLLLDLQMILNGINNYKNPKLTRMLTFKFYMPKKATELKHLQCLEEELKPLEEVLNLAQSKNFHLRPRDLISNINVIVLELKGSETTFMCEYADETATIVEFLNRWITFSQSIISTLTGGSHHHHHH
notes: also called aldesleukin with carboxyl-terminus HIS6-tag linked via a Gly-Gly-Ser linker
B2: the Kd in assay [6] came out at 8 nM; in assay [7] it was 300 nM.

One may read the Kd as the constant that tells how readily two partners part at equilibrium.
